Laboratory results taken from PubChem BioAssay AID504339 (National Center for Advancing Translational Sciences (NCATS), 2011).
About 17,000 (4.4%) of roughly 390,000 compounds were called active. The shares of active, inactive and inconclusive entries below differ from those in the screen. Calls follow the shape of the dose curve; as a rule, active = well fitted inhibition curve with a large enough effect; inconclusive = small, poorly fitted or top-dose-only effect; inactive = no such curve, though single readings can be large or run the other way. A potency beside an inconclusive call is a rough fit, not a confirmed value.

target: Lysine-specific demethylase 4A (Homo sapiens) (UniProt O75164); assay: qHTS Assay for Inhibitors of JMJD2A-Tudor Domain; details: AlphaScreen JMJD2A-Tudor / H3K4me3 peptide binding; activity change, negative = inhibition: at 114 µM (top of the series); also: nearly all actives have a fitted effect of over 50% in size
UniProt O75164, sequence (O75164 whole entry, looked up, the tested form may be a part): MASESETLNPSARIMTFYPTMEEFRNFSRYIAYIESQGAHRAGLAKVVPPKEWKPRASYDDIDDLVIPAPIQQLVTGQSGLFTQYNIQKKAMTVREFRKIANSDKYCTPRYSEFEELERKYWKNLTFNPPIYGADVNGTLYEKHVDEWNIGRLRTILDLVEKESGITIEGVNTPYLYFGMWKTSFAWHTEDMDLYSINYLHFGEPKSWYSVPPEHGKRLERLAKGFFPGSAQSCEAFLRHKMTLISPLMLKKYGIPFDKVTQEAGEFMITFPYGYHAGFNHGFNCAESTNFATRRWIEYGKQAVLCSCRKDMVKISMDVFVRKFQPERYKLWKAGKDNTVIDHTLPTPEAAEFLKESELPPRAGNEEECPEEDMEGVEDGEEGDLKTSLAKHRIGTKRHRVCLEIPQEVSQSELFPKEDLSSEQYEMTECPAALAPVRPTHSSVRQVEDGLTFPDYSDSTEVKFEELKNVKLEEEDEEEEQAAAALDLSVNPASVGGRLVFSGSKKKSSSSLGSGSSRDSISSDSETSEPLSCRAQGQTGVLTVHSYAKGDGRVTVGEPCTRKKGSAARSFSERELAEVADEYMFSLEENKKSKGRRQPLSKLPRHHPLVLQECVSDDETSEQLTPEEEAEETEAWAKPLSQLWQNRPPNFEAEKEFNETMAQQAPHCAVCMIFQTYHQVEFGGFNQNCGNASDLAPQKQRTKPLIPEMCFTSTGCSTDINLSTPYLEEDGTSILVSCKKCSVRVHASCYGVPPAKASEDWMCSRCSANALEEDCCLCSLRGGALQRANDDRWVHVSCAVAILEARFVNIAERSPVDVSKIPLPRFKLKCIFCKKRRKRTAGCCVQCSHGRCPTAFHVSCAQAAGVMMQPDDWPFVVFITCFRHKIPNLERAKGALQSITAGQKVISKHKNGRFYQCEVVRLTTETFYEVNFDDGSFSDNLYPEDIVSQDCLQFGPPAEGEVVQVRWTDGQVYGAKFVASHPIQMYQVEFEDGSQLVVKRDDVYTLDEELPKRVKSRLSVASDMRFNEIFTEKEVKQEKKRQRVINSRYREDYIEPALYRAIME
% is scaled to controls: 0 for no effect and ±100 for the full control effect; potency is read from the fitted curve at half-maximal effect; tags tell the direction and shape of the fitted curve.

Potency, active:
COc1ccc(OC)c2c1C(=O)C(Cl)=C(Cl)C2=O 0.891 µM
CC(C)(C)c1nc(CN2CCOCC2)cc(CN2CCOCC2)c1O 31.6 µM
COCc1cc(=O)[nH]c(=S)[nH]1 12.6 µM
C[n+]1ccccc1/C=C/c1ccc(C#N)cc1 22.4 µM
O=C(O)C1OC(C(=O)O)C(C(=O)O)C1C(=O)O (configuration not stated) 20 µM

Potency, inconclusive:
CN(C)C(=C(C#N)C#N)N1CCN(c2ccc(Cl)cc2)CC1 20 µM [inhibitor, full curve, poor fit]
Cc1cccc(NC(=O)c2nc[nH]c2C(=O)N[C@@H](Cc2ccccc2)C(=O)OC(C)(C)C)c1 50.1 µM [inhibitor, partial curve]
CCc1cccc(NC(=O)Cn2nc(-c3cc(C)ccc3C)ccc2=O)c1 22.4 µM [inhibitor, partial curve, poor fit]
COc1ccc(-c2cc(C(=O)N3CCN(c4ccccc4OC)CC3)no2)cc1OC 25.1 µM [inhibitor, full curve, poor fit]
CCCCCCC(=O)Nc1ccc(C(=O)N/N=C/c2cccnc2)cc1 39.8 µM [inhibitor, single point]
COc1ccc(C2CC(c3ccc4ccccc4c3)=NN2C(=O)CN2CCC(C(N)=O)CC2)cc1 (configuration not stated) 44.7 µM [inhibitor, partial curve]
CCOC(=O)c1c(S(=O)(=O)N2CCCC(C(=O)N3CCN(c4ccccc4)CC3)C2)c(C)n(C)c1C (configuration not stated) 89.1 µM [inhibitor, single point]
Cc1ccc(CNC(=O)CSc2nnc3c(n2)[nH]c2ccc(F)cc23)cc1 56.2 µM [inhibitor, partial curve]
O=[N+]([O-])c1ccc(C(c2sc3nc(-c4ccco4)nn3c2O)N2CCN(c3cccc(Cl)c3)CC2)cc1 (configuration not stated) 14.1 µM [inhibitor, full curve]
O=C(C1=COCCO1)N(Cc1nnc(-c2ccc(Cl)cc2)o1)C1CC1 35.5 µM [inhibitor, single point]
Cc1ccc(S(=O)(=O)C/N=C(/NC(=S)N(c2ccccc2)c2ccccc2)c2ccccc2)cc1 70.8 µM [inhibitor, partial curve]
O=[N+]([O-])c1cc([N+](=O)[O-])c(Oc2c(F)cc(F)cc2F)cc1NN1CCCCC1 28.2 µM [inhibitor, partial curve]
CN(Cc1ccccc1)C(=O)c1ncn(C)c1C(=O)N(C)Cc1ccccc1 20 µM [inhibitor, single point]
CN1CCN(c2ccc(NC(=O)c3ccc(-c4cccc([N+](=O)[O-])c4)o3)cc2)CC1 50.1 µM [inhibitor, partial curve]
CCCn1c(C)cc(/C=C(\C#N)C(=O)OCC(=O)Nc2cccc(S(N)(=O)=O)c2)c1C 56.2 µM [inhibitor, partial curve]
COc1cc(C(=O)NCCNC(=O)c2ccco2)cc(OC)c1OC 31.6 µM [inhibitor, full curve]
Cc1ccc2c(Cl)c(C(=O)NCC(c3ccco3)N3CCCC3)sc2c1 (configuration not stated) 35.5 µM [inhibitor, partial curve]
COC(=O)Cn1c(C)c(/C=C/c2cc[n+](C)cc2)c2ccccc21 39.8 µM [inhibitor, single point]
Cn1c(=O)[nH]c(=O)c2c1nc(N1CCC(Cc3ccccc3)CC1)n2Cc1ccccc1 17.8 µM [inhibitor, full curve]
O=C(NC(=S)Nc1ccccc1N1CCCCC1)c1ccccc1 50.1 µM [inhibitor, partial curve]
CCCN(CCC)CCNC(=O)c1ccc2c(c1)NC(=O)C(CS(=O)(=O)Cc1cccc(Br)c1)N2 (configuration not stated) 50.1 µM [inhibitor, partial curve]
COc1ccc(N/N=C(/C#N)S(=O)(=O)c2nsc(C)c2C#N)cc1 56.2 µM [inhibitor, partial curve, poor fit]
COc1ccc(-c2cc(=O)oc3cc(OCC(=O)NCCCn4ccnc4)ccc23)cc1 50.1 µM [inhibitor, partial curve]
COc1cccc(/C=N/NC(=O)C(=O)NCc2ccco2)c1O 15.8 µM [inhibitor, full curve, poor fit]
COc1ccccc1NS(=O)(=O)c1cc(NC(=O)c2cccnc2)ccc1N1CCCCC1 44.7 µM [inhibitor, partial curve]
COc1ccc(OC)c(-c2csc(N(CC3CCCO3)C(=O)C3CCCCC3)n2)c1 (configuration not stated) 14.1 µM [inhibitor, full curve]
O=C(NC(=S)NCc1ccco1)c1ccc([N+](=O)[O-])cc1 79.4 µM [inhibitor, partial curve]

Activity change, negative = inhibition, inactive:
COc1ccc(OC)c(NC(=O)CN2C(=O)CCc3cc(S(=O)(=O)N4CCCCC4)ccc32)c1 -24.8%
Cc1nnc(NCc2ccccc2)c2c1nnn2Cc1ccc(F)cc1 -13.8%
O=c1c(Cl)c(Cl)cnn1Cc1nnc(-c2ccc(Cl)cc2)o1 -12.6%
CCOC(=O)C1(Cc2ccccc2C(F)(F)F)CCN(C2CCCC2)CC1 -21.3%
CN(C)S(=O)(=O)c1cccc(NC(=O)COC(=O)/C=C/c2ccc(Br)o2)c1 -14% [at 11.4 µM]
CCCCn1cc(S(=O)(=O)c2cccc(C)c2)c(=O)c2cc(F)c(N3CCOCC3)cc21 -0.33%
CN(C)CCn1c2c(c(SCC(=O)Nc3ccc(F)cc3F)nc1=O)CCC2 -15.3%
O=C(Nc1nccs1)c1ccc2c(=O)n3c(nc2c1)CCCCC3 -13.6%
COc1ccccc1NC(=O)C1=C(C)Nc2nnnn2C1c1cc(Br)c(O)c(OC)c1 (configuration not stated) 1.03%
COc1cccc(-n2c(=O)c3c(C)c(C)sc3n(CC(=O)NCc3ccccc3)c2=O)c1 -6.48%
